Assay: soluble fraction after stress (log2 fold change); higher = more stays soluble; pooled small domains, quantitative proteomics
Details: stress: 50 degC
Method in brief: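 The stress applied to every library was 50°C. These custom libraries of small protein domains were pooled and measured at high throughput with quantitative proteomics as the read-out. Aggregation propensity is expressed as the base-two logarithm of the fold change in how much of each protein remains soluble. The higher the value, the more of that protein stays in solution.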

HMRRLQTVVFQKGLATTIRQARQLINHGHIFVDGHKVTVPGYLVLREEEGSVAYNPASPFTDENHPM
soluble fraction (log2): -2.04

HMTEEDLIEAFKIFDKDGNGVISAQELRHVMTTLGERLTEEEADEMIREADIDGDGYINYHEFVRIMM
soluble fraction (log2): 0.0204
